# The RNAGym collection of RNA variant scans (doi:10.1101/gad.245936.114)
# Variants at the floor of the assay are shown more often than the library holds them.
# B1: tRNA (parent)
# chain: CUCUCGGUAGCCAAGUUGGUUUAAGGCGCAAGACUUUAAUUUAUCACUACGAAAUCUUGAGAUCGGGCGUUCGACUCGCCCCCGGGAGAUUUUUUCCUCGAGCAA
# Variants of: B1
# Experiment: nonsense suppression (GFP-seq) (ratio to wild type); higher = more function; SUP4oc tRNA, yeast GFP reporter sort-seq
# Summary of the method: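 Yeast were grown in raffinose/galactose medium with 80 mg/L adenine, each strain bearing a genome-integrated ochre-suppressor tRNA variant from a ~3% random-mutation library, a galactose-driven GFP ochre reporter, and RFP. After sorting into GFP/RFP bins, every bin was sequenced on an Illumina platform at phred ≥30. The GFPSEQ value, a measure of nonsense suppression, is the weighted bin median GFP/RFP relative to the unmutated parent tRNA, using each variant's estimated cell share per bin as the weight. Only variants with ≥100 reads and ≥30 cells were included.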
row,Variant,nonsense suppression
1,A13C G84C,0.0388
2,A13C G84A,0.175
3,A13G G19C U57G,≤ 0.026
4,A13G G19C A54U,≤ 0.026
5,A13C G88A,0.0766
6,A13G U22A G67C U71A C82A,≤ 0.026
7,A13C U63A A89U,≤ 0.026
8,A13C U63A A89G,≤ 0.026
9,A13G G18C G61A,≤ 0.026
10,A13G U20G A24G,≤ 0.026
11,A13U G61U U71A A89G,≤ 0.026
12,A13G,0.191
13,A13U,1.03
14,A13G U70A G84C,≤ 0.026
15,A13C G69C G85A A89U,≤ 0.026
16,A13U C34U C83U,≤ 0.026
17,A13U C34G C77U,≤ 0.026
18,A13G A23U C27G,≤ 0.026
19,A13G G59C A60U U71A,≤ 0.026
20,A13G A33U,≤ 0.026
21,A13U C27U,0.209

row,Variant,nonsense suppression
1,A13C U35G U57C,≤ 0.026
2,A13U C34U A60C G73A,≤ 0.026
3,A13U G61U C72U U76G,≤ 0.026
4,A13U C34A G61C G85C,≤ 0.026
5,A13U A24G A62U G65U,≤ 0.026
6,A13G G88C,≤ 0.026
7,A13G G88U,≤ 0.026
8,A13G G88A,≤ 0.026
9,A13U A14C U20C A24U C79U,≤ 0.026
10,A13G G15U U20A G67C,≤ 0.026
11,A13G U17A A24U A31U G61U,≤ 0.026
12,A13G G78U,≤ 0.026
13,A13G A30C U55C G65A,≤ 0.026
14,A13U A24G G26C G32C A89C,≤ 0.026
15,A13C U17C G26C A31U U71A C77G,≤ 0.026
16,A13U A14U A60C,≤ 0.026
17,A13U C77U,0.0452
18,A13U G26U A89G,≤ 0.026
19,A13G U22G U58G G88A,≤ 0.026
20,A13G U17C A33G G73U C81G,≤ 0.026
21,A13U G28U A30C U55G,≤ 0.026

row,Variant,nonsense suppression
1,A13G U35C U71C,≤ 0.026
2,A13U C56G A62G,≤ 0.026
3,A13U G59U C80G,≤ 0.026
4,A13G G18A G19U U71G A87U,≤ 0.026
5,A13G G32A U35G,≤ 0.026
6,A13G G65A,≤ 0.026
7,A13G C29U G88C,≤ 0.026
8,A13U G32C G65C A87U,≤ 0.026
9,A13G U22G U70G,≤ 0.026
10,A13U G15U A54U C68U,≤ 0.026
11,A13G G67U U70A C72G,≤ 0.026
12,A13C U70C G73C,≤ 0.026
13,A13C G61A,0.852
14,A13U A24G G61C,0.0375
15,A13C U17A A31G A89U,≤ 0.026
16,A13G G18C,≤ 0.026
17,A13C U55A,≤ 0.026
18,A13U A14G G65C G67A U70A,≤ 0.026
19,A13G C72G,≤ 0.026
20,A13U A33C,≤ 0.026
21,A13G U20C C56G U57A A60G,≤ 0.026

row,Variant,nonsense suppression
1,A13U G32U C77A,≤ 0.026
2,A13G U17A U35G,≤ 0.026
3,A13U G28U,≤ 0.026
4,A13G U17A A24U,≤ 0.026
5,A13C G67U C77A,≤ 0.026
6,A13U C34G U35G G88U,≤ 0.026
7,A13G C75A,0.71
8,A13U G25U A33G C34U A60C,≤ 0.026
9,A13G A14U G15C U20G G32C C82G G86A,≤ 0.026
10,A13C G78C G88A,≤ 0.026
11,A13U C81G G84U,≤ 0.026
12,A13U A31G,1.22
13,A13U G15U G28A U63A,≤ 0.026
14,A13G G19A C68U,≤ 0.026
15,A13C G67A A74C,≤ 0.026
16,A13G G19C G86U,≤ 0.026
17,A13U G25U,≤ 0.026
18,A13U C34G C56A,≤ 0.026
19,A13U G15U,≤ 0.026
20,A13U A23U A33C,≤ 0.026
